From publication PMC3930858
Changes are numbered by the printed parent chain. Results are given in words; binding and its absence hold for the method and conditions named. For some of these results: Binding seen in cells or lysates may run through a third protein. Some binding calls cover weakened binding; strength is not graded here.

T1: SnRK1.2/AKIN11 (Arabidopsis thaliana) (UniProt P92958)
T1 sequence: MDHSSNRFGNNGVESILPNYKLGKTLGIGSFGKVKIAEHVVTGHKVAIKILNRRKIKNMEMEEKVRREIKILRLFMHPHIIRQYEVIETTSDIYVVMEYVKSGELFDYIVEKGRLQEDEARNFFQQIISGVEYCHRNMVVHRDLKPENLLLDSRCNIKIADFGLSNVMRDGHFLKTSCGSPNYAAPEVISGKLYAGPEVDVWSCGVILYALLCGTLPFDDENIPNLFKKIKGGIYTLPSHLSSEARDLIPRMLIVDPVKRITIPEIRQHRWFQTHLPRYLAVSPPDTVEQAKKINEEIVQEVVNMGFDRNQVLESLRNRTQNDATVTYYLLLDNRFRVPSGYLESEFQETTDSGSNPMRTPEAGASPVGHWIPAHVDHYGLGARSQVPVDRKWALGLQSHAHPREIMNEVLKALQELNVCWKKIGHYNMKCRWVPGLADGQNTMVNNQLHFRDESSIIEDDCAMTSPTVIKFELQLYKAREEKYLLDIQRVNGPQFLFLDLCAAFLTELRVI

T2: SnRK1.1/AKIN10 (Arabidopsis thaliana) (UniProt Q38997)
T2 sequence: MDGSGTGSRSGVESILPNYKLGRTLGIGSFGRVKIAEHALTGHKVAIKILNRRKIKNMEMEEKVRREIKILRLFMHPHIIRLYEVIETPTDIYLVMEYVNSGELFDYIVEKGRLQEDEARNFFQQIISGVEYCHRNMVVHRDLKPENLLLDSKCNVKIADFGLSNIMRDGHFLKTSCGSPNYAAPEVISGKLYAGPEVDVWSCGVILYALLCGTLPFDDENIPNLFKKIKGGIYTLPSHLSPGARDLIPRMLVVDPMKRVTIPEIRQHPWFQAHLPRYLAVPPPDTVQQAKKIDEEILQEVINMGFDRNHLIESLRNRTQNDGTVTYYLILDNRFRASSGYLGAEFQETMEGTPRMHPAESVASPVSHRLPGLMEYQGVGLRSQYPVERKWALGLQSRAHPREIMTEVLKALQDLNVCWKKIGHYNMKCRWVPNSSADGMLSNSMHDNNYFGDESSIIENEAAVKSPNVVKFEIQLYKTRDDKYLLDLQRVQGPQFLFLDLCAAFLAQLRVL

T3: AKIN10-Venus^N (Arabidopsis thaliana) (UniProt Q38997)
T3 sequence: T2 sequence

T4: AKIN11-Venus^N (Arabidopsis thaliana) (UniProt P92958)
T4 sequence: T1 sequence

T5: SnRK1.1/AKIN10 (Arabidopsis thaliana), Q38997
T5 chain: T2 sequence

B1: DUF581-9 (protein, UniProt O80506 1-93)
chain: MASYYSGFLGCEEPHFLESCSLCRKHLGLNSDIFMYRGDKAFCSNECREEQIESDEAKERKWKKSSRSLRKNSSETKESAAGNTVRTGTLVVA
B2: DUF581-18 (protein, UniProt Q9LV75 1-113)
chain: MVLGKRHGSLIKRTTSMKMITLDTPTIYDASQPSDHLTFHQHPHNPMVVMASNYDDFLKTCSLCNRSLCHHRDIYMYRGNNAFCSLECREKQIKLDEKKAKTGFVTSKKPIRI
B3: DUF581-19 (protein, UniProt Q8LGS1 1-263)
chain: MLRNKPRAAVTTKKQTSLLMADQPPPPKPNTCHCSPSLFSSPKFRFFTSKMMMTPFDSDFSLVSPTSILEANPSIFSSKNPKPVSYFEPTIPNPQRFHSPDVFGLADLVKDGDSNRDHSRKPVNKMVLFGSKLRVQIPSSADFGTKTGIRYPPCQLSPCVQTKVLAVSEIDQTEDYTRVISHGPNPTITHIFDNSVFVEATPCSVPLPQPAMETKSTESFLSRCFTCKKNLDQKQDIYIYRGEKGFCSSECRYQEMLLDQMET
B4: DUF581-18-Venus^C (protein, UniProt Q9LV75 1-113)
chain: B2 chain
B5: DUF581-9C47S (protein, UniProt O80506 1-93)
chain: B1 chain with C47S
B6: DUF581-9C47S, O80506 1-93 (protein)
chain: B1 chain with C47S

Tests used:
[1] = target: T1, SnRK1.2/AKIN11 (Arabidopsis thaliana); assay: two-hybrid; direct test by cotransformation of GAL4 DNA-binding domain and activation domain plasmids in yeast strain Y190; growth on medium lacking Leu, Trp and His with 25 mM 3-amino-triazole, 30°C, 3 days; lacZ activity
[2] = target: T2, SnRK1.1/AKIN10 (Arabidopsis thaliana); assay: as above
[3] = target: T3, AKIN10-Venus^N (Arabidopsis thaliana); assay: split reporter; BiFC with Venus^N and Venus^C fusions under the CaMV35S promoter, transient expression in N. benthamiana leaves, confocal microscopy 48 h post infiltration
[4] = target: T4, AKIN11-Venus^N (Arabidopsis thaliana); assay: as above
[5] = target: T5, SnRK1.1/AKIN10 (Arabidopsis thaliana), …; assay: two-hybrid; direct test by cotransformation of GAL4 DNA-binding domain and activation domain plasmids in yeast strain Y190; growth on medium lacking Leu, Trp and His with 25 mM 3-amino-triazole, 30°C, 3 days; lacZ activity; conditions: remark: other sources report otherwise

| Binder | binding [1] | binding [2] | also measured |
| --- | --- | --- | --- |
| B1 | binds | binds | – |
| B2 | binds | binds | – |
| B3 | binds | binds | – |
| B4 | – | – | binding [3]: binds; binding [4]: binds |
| B5 | no binding | – | – |
| B6 | – | – | binding [5]: no binding |
